# Hit rate of the full screen: of about 46,000 compounds, about 60 (0.1%) were called active. About 3% were inconclusive and are not listed. Calls follow the shape of the dose curve; as a rule, active = well fitted inhibition curve with a large enough effect; inconclusive = small, poorly fitted or top-dose-only effect; inactive = no such curve, though single readings can be large or run the other way. The list shows a part of the results.
# Experiment: Primary qHTS assay for Inhibitors of ovarian cancer metastasis using an organotypic tumor microenvironment (TME) model. Also: nearly all actives have a fitted effect of over 65% in size.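 As to activity change, negative = inhibition: plate controls were DMSO wells for no effect and tomatine positive control wells for full effect.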
# Details: SKOV3ip1-GFP adhesion/invasion on 3D omental model, fluorescence; series mostly up to 45.8 µM; activity change, negative = inhibition: at the top concentration
# Procedure, shortened: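 Adhesion/invasion was scored as fixed GFP-labeled SKOV3ip1 cell counts (488/509 nm), normalized to DMSO and tomatine controls. Cancer cells in serum-free medium, with four compound doses (0.36-46 umol/L), sat 2 hr at RT then 16 hr at 37 C on a 48 hr fibroblast/mesothelial/ECM culture.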
Structure (SMILES),"activity change, negative = inhibition",outcome
CC(C)CNc1nc(Oc2ccc(OCC(N)=O)nn2)nc(N2CCOCC2)n1,inactive: -14.1%,
Cc1cccc(NS(=O)(=O)c2ccc(-n3cccn3)cc2)c1C,inactive: 23.7%,
Cc1nn(C)c2c1c(C(F)(F)F)cc(=O)n2Cc1cccc(Br)c1,inactive: -0.329%,
O=C(CCc1nc2cccnc2n1Cc1cccs1)Nc1cccc(Cl)c1,inactive: -2.05%,
COc1ccccc1CNC(=O)c1ccc2nc(-c3ccccc3)c(-c3ccccc3)nc2c1,inactive: -6.37%,
CCn1cc(C(=O)NCc2ccc(C)cc2)c(=O)c2cc(S(=O)(=O)N3CCCCCC3)ccc21,inactive: 5.17%,
CCOc1ccc(CNC(=O)c2ccc(NC(=O)N3CCCCc4ccccc43)cc2)cc1OC,inactive: 3.5%,
CCOc1ccc(-n2c(-c3ccccc3)c(C)n3c4c(=O)n(C)c(=O)n(C)c4nc23)cc1,inactive: 7.71%,
Cc1cc(-c2nnc3n2CCCCC3)c(C)n1-c1ccccc1,inactive: 10.3%,
Cn1cc(S(=O)(=O)N2CCCCCC2)cc1C(=O)NCc1ccccc1Cl,,inactive
CCc1nnc(NC(=O)c2nc(SCc3ccccc3C)ncc2Cl)s1,,inactive
CCCCCOc1ccc(/C=C/C(=O)Nc2sc(C(C)=O)c(C)c2C(=O)OCC)cc1OC,inactive: 20%,
CCc1ccc(-n2c(=O)c3sc4ccccc4c3n(Cc3cccc(F)c3)c2=O)cc1,inactive: 33.8%,
CCOC(=O)N1CCc2c(sc(NCc3ccc(OC)c(OC)c3OC)c2C(=O)Nc2ccc(OC)cc2OC)C1,inactive: -1.03%,
CCCC(=O)NCC(c1ccc2c(c1)OCO2)N1CCN(c2ccccc2)CC1 (stereo unspecified),inactive: 8.64%,
CCCNC(=O)C1CCN(c2ncnc3c2nc2n3CCCCC2)CC1,inactive: 1.02%,
Cc1c(Cl)cccc1NC(=O)Cn1c(=O)nc(-c2ccccc2)c2ccccc21,,inactive
C=C1CCC2[C@](C)(CO)C(O)CC[C@]2(C)C1CC=C1C(=O)OCC1O (stereo partly specified),inactive: -6.01% [at 92.2 µM],
Cc1oc(C)c2c(=O)cc(-c3ccc4c(c3)OCO4)cc(OC(=O)c3ccccc3Cl)c12,inactive: -9.45%,
COC(=O)c1ccccc1NC(=O)CCC(=O)N1CCOc2ccccc21,inactive: -4.3%,
COc1cc(Nc2ncc(F)c(Nc3ccc4c(n3)NC(=O)C(C)(C)O4)n2)cc(OC)c1OC,inactive: 19.8%,

Structure (SMILES),"activity change, negative = inhibition",outcome
COc1ccccc1Cn1ccn(Cc2c(F)cccc2Cl)c(=O)c1=O,inactive: -3.58%,
CCC(=O)Nc1ccc(S(=O)(=O)NCc2ccc3c(c2)CCN3C(=O)c2ccc(C)cc2)cc1,inactive: -9.96%,
CCN(CC)C(=O)c1sc(NC(=O)C(C)Sc2nc(-c3ccccc3)cc(C(F)(F)F)n2)c(C(=O)OC)c1C (stereo unspecified),inactive: 7.12%,
Nc1cc(=O)nc(SCC(=O)Nc2cccc(Cl)c2)n1CCc1ccccc1,inactive: 0.873%,
CSc1ccc(-c2nc3ncccn3c2Nc2ccc(C)c(C)c2)cc1,inactive: -0.773%,
CC(=O)c1ccc(NC(=O)Nc2nnc(N3CCCC(C)C3)s2)cc1 (stereo unspecified),inactive: -23.1%,
CCN(c1ccccc1)c1nnc(NC(=O)Nc2cccc(Cl)c2C)s1,inactive: 1.59%,
CN(C)c1oc(/C=C/c2ccc(F)cc2)nc1C#N,inactive: -8.68%,
Cc1cccc(-c2c3c(=O)n(C)c(=O)n(C)c3cn2-c2cc(N)c(Cl)cc2Cl)c1,inactive: 0.492%,
COCCN1CCc2nc(SCC(=O)Nc3ccc(Br)cc3)[nH]c(=O)c2C1,inactive: 5.63%,
CCOCCCNC(=O)c1cc2c(-c3ccc(OC)c(OC)c3)nn(C)c2s1,,inactive
COc1ccc(Cl)cc1Nc1ncnc2c1c(-c1ccccc1)cn2-c1ccccc1,inactive: 4.63%,
CC(C)(C)OC(=O)N1CCC(c2c(C(=O)NCc3cccs3)cnn2-c2ccc(F)cc2F)CC1,inactive: 15.4%,
Cc1nc2c(C(=O)NCCc3ccccc3)cnn2c(C)c1Cc1c(F)cccc1Cl,inactive: 7.05%,
COc1ccc(NC(=O)Nc2sc3nc4n(c(=O)c3c2C)CCC(C)CC4)cc1OC (stereo unspecified),inactive: 2.82%,
Cc1ccc(NCc2ccccc2-c2nnc(-c3ccccc3Cl)o2)c(C)c1,inactive: 27.4%,
NC(=O)C1(N2CCCCC2)CCN(C(=O)Nc2ccc(C(F)(F)F)cc2)CC1,,inactive
CCS(=O)(=O)c1ncc(Cl)c(C(=O)N2CCN(c3cccc(Cl)c3)CC2)n1,,inactive
Cc1ccc(CNS(=O)(=O)c2cc(C(=O)Nc3cccc(C(F)(F)F)c3)ccc2F)cc1,,inactive
COc1ccc(CC(=O)NCc2ccc3c(c2)CCN3C(=O)c2ccc(Cl)cc2)cc1OC,inactive: 2.1%,
O=c1cc(-c2ccccc2)c2cc(Cl)c3c(c2o1)CN(Cc1ccccc1)CO3,inactive: -0.976%,

Structure (SMILES),"activity change, negative = inhibition",outcome
CCOC(=O)c1ccc(N2C(=O)c3n[nH]c(-c4cccs4)c3C2c2ccc(C(C)C)cc2)cc1 (stereo unspecified),,inactive
Cc1ccc2c(c1)c1c(c(=O)n(-c3ccccc3C)c(=O)n1CC(=O)NCc1ccccc1)n2C,,inactive
Cc1cc(C)c2c(=O)cc(CSc3nnc(COc4ccccc4C)n3C)[nH]c2c1,inactive: 0.175%,
COc1ccccc1-c1cc(C(F)(F)F)nc(S(=O)(=O)CCCC(=O)Nc2cc(OC)c(OC)c(OC)c2)n1,inactive: -0.252%,
COc1ccc(N(Cc2cccs2)C(=O)Nc2ccccc2)cc1,inactive: 8.54%,
COc1ccc(OC)c(NC(=O)CN2C(=O)c3ccccc3Sc3ccc(C(=O)N4CCCC4)cc32)c1,inactive: 0.418%,
CCOC(=O)c1c(Oc2ccc(OC)cc2)nnc(-c2ccccc2)c1-c1ccccc1,inactive: 15.1%,
COc1ccccc1NC(=O)Cn1c(=O)n(Cc2ccco2)c(=O)c2cccnc21,inactive: -7.3%,
Cc1cc(-c2ccc(C)c(S(=O)(=O)N(C)c3ccc(C)c(C)c3)c2)on1,inactive: 6.92%,
Cc1ccc(CNC(=O)c2nnc(Cc3cccc(F)c3)o2)cc1,inactive: 7.55%,
CCOC(=O)c1cc(-c2ccc(OC)c(S(=O)(=O)Nc3ccc(OC)cc3OC)c2)on1,inactive: -14.4%,
COc1ccccc1-c1nnc(SCCOc2ccccc2C)o1,inactive: -3.82%,
CCc1cccc(CC)c1NS(=O)(=O)c1ccc2c(c1)CCN2C(=O)C1CC1,,inactive
CC(C)c1ccc(S(=O)(=O)c2cnc(SCC(=O)Nc3cccc(C(F)(F)F)c3)nc2N)cc1,inactive: 1.77%,
COc1ccc(N2CC(C(=O)Nc3ccc(NC(C)=O)cc3)CC2=O)cc1 (stereo unspecified),inactive: -0.342%,
COC(=O)c1sccc1S(=O)(=O)N1CCN(c2ccccc2OC)CC1,inactive: 7.21%,
O=C(Nc1ccc2nc(SCCOc3ccccc3Cl)sc2c1)c1cccs1,inactive: 3.54%,
COc1ccc(NC(=O)C2=C(C)Nc3nc(CCCO)nn3C2c2ccc(O)cc2)cc1 (stereo unspecified),inactive: 0.682%,
Cc1ccc(C)c(S(=O)(=O)c2nnn3c2nc(N2CCOCC2)c2sccc23)c1,,inactive

# From PubChem BioAssay AID1963576 (National Center for Advancing Translational Sciences (NCATS), 2024)
